# These are yes or no findings as the source states them, for the method shown. Binding seen in cells or lysates may run through a third protein. Some results given as binding are weak or reduced against the parent protein; the word gives no strength.
# Molecular target: HCV envelope glycoprotein E2, wild type (genotype 1a strain H77c) (hepatitis C virus genotype 1a strain H77c) (UniProt P27958)
# Assay: co-IP; lysates of transfected HEK-293T cells (20 mM Tris/HCl pH 7.4, 150 mM NaCl, 1 mM EDTA, 1 % Triton X-100, 20 mM iodoacetamide) immunoprecipitated with anti-E2 serum R646, 2 h at 4 °C, protein A–Sepharose; reducing and non-reducing SDS-PAGE; blot with anti-E1 mAb A4 and anti-E2 mAbs AP33 and ALP98; grades are the estimated amount relative to WT
row,Substance,binding
1,HCV E1 glycoprotein insertion mutant in218 (from UniProt P27958 192-383),binds
2,HCV E1 glycoprotein insertion mutant in231 (from UniProt P27958 192-383),binds
3,HCV E1 glycoprotein insertion mutant in253 (from UniProt P27958 192-383),binds
4,HCV E1 glycoprotein insertion mutant in263 (from UniProt P27958 192-383),binds
5,HCV E1 glycoprotein insertion mutant in324 (from UniProt P27958 192-383),binds
6,HCV E1 glycoprotein insertion mutant in341 (from UniProt P27958 192-383),binds
7,HCV E1 glycoprotein insertion mutant in343 (from UniProt P27958 192-383),binds
8,HCV E1 glycoprotein insertion mutant in352 (from UniProt P27958 192-383),binds

# Reference: paper PMC3347801
